Assay results published in PubChem BioAssay AID504339 (National Center for Advancing Translational Sciences (NCATS), 2011).
Out of some 390,000 compounds screened, about 17,000 (4.4%) were called active. This list was built around the results that the source calls inconclusive (neither active nor inactive); the mix of calls is not that of the screen. The call rests on the fitted dose curve; in most records, active means well fitted inhibition curve with a large enough effect; inconclusive means small, poorly fitted or top-dose-only effect; inactive means no such curve, though single readings can be large or run the other way. A potency beside an inconclusive call is a rough fit, not a confirmed value.

Biological target: Lysine-specific demethylase 4A (Homo sapiens) (UniProt O75164)
Experiment: qHTS Assay for Inhibitors of JMJD2A-Tudor Domain; further: nearly all actives have a fitted effect of over 50% in size
Details: AlphaScreen JMJD2A-Tudor / H3K4me3 peptide binding; activity change, negative = inhibition: at 114 µM (top of the series)
On the % scale 0 is the no-effect control and ±100 the full control effect; potency means the concentration at half of the fitted maximal effect; tags describe the fitted curve by direction and shape.

Chain of UniProt O75164 (O75164 whole entry, looked up, the tested form may be a part): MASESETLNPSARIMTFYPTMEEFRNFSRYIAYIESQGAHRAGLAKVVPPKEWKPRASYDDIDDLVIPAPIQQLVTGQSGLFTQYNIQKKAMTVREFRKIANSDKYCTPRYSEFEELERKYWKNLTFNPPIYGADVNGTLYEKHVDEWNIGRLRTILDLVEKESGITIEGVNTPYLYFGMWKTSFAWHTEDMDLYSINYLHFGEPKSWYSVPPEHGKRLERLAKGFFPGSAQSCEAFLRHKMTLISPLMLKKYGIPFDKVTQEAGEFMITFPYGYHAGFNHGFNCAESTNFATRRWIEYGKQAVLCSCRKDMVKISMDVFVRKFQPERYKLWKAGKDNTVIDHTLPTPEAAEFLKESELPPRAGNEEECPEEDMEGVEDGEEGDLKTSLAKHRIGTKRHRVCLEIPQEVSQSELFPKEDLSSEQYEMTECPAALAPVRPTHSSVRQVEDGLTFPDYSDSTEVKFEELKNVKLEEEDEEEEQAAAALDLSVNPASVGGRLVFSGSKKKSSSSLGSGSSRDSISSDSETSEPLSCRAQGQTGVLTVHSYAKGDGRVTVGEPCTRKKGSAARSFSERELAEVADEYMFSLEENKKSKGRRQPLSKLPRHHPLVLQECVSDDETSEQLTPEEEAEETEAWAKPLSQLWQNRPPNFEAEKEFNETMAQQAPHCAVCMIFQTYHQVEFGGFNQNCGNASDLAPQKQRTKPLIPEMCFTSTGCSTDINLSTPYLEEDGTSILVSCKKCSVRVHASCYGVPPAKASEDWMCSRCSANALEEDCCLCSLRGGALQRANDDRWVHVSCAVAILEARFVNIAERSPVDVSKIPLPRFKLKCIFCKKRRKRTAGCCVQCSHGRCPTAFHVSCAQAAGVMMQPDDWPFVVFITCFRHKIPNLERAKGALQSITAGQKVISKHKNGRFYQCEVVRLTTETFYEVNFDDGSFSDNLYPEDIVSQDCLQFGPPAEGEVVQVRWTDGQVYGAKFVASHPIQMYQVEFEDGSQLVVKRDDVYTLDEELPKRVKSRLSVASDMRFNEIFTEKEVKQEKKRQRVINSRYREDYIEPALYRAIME

Compound	Potency	activity change, negative = inhibition
CCOC(=O)CSc1nc(N)c(C(=O)Nc2ccc(N(C)C)cc2)s1	active: 39.8 µM	
CC(C)(C)n1nc2c(c1NC(=O)Cc1ccccc1)CS(=O)(=O)C2	inconclusive: 63.1 µM [inhibitor, partial curve]	
OCC1(Cc2ccccc2)CCN(Cc2ccccn2)CC1		inactive: -2.86%
COc1ccc(OC)c(CCNC(=O)CS(=O)(=O)Cc2nc(-c3ccccc3C)oc2C)c1	inconclusive: 39.8 µM [inhibitor, partial curve]	
CN1CCN(Cc2cc(COCc3ccccc3)c3cccnc3c2O)CC1	active: 17.8 µM	
COc1cc(/C=C/C(=O)OCC(=O)N2CCN(C(=O)c3ccco3)CC2)ccc1O		inactive: -12.3%
O=C(O/N=C1\CCCCC1c1ccc([N+](=O)[O-])cc1[N+](=O)[O-])c1c(F)cccc1F (stereo unspecified)	active: 44.7 µM	
COc1cccc(NC(=O)Cn2cc(C(=O)c3ccc(C)cc3)c(=O)c3cc(OC)ccc32)c1	inconclusive: 56.2 µM [inhibitor, partial curve]	
Cc1ccccc1NC(=O)Cn1c(=O)n(Cc2ccc3c(c2)OCO3)c(=O)c2ccccc21		inactive: -3.07%
O=C(CSc1nnc(NC(=O)C2CC2)s1)NCc1cccs1		inactive: -5.8%
COC(=O)CSc1nnc(CNc2nc(-c3ccccc3)cs2)n1C		inactive: -23.6% [at 57.1 µM]
O=C(COc1ccccc1)NNC(=S)NC(=O)c1ccccc1	active: 17.8 µM	
CCCOc1ccc(-c2nc(SCC(=O)c3ccc(Cl)cc3)n[nH]2)cc1	inconclusive: 79.4 µM [inhibitor, single point]	
N#C/C(=N\Nc1ccc(S(=O)(=O)N2CCOCC2)cc1)C(N)=S	inconclusive: 14.1 µM [inhibitor, full curve]	
CCC(=O)N(Cc1cc(=O)[nH]c2ccccc12)C1CCCCC1	inconclusive: 39.8 µM [inhibitor, single point]	
CCN(CC)c1ccc(/C=N/NC(=O)c2cc3ccccc3[nH]2)cc1		inactive: -19.9%
COc1ccc(Nc2c(-c3cccc(O)c3)nc3cnccn23)cc1	inconclusive: 56.2 µM [inhibitor, partial curve]	
Cc1ccccc1Oc1nc(-c2ccccn2)nc2ccccc12	inconclusive: 89.1 µM [inhibitor, partial curve]	
Cc1onc(-c2ccccc2)c1C(=O)NC(=S)NNC(=O)c1ccccc1O	active: 79.4 µM	
CSc1ncccc1C(=O)OCC(=O)c1ccc(Br)s1	inconclusive: 25.1 µM [inhibitor, partial curve]	
CCOc1ccc(NC(=O)COc2ccc(S(=O)(=O)NC3CCCCC3)cc2)cc1		inactive: -15.8%
COc1cccc(CNC(=O)CSc2ccc(-c3ccccn3)nn2)c1	inconclusive: 31.6 µM [inhibitor, single point]	
CCOC(=O)c1c(Nc2ccc(OC)cc2)nnc(-c2ccccc2)c1-c1ccccc1	inconclusive: 20 µM [inhibitor, full curve]	

Compound	Potency	activity change, negative = inhibition
O=C(N/N=C/C=C/c1ccco1)c1cccs1	inconclusive: 79.4 µM [inhibitor, partial curve]	
COc1ccc(-c2csc(=Nc3ccccc3)n2CCO)cc1F	active: 39.8 µM	
CC1CCCN(c2nc3ccccc3nc2C(C#N)S(=O)(=O)c2cccs2)C1 (stereo unspecified)	inconclusive: 35.5 µM [inhibitor, full curve, poor fit]	
Cc1cccc(CN(CC(=O)N/N=C/c2ccco2)S(=O)(=O)c2ccc(Cl)cc2)c1	active: 79.4 µM	
O=C(Nc1cc(Cl)ccc1Cl)c1cc([N+](=O)[O-])cc(Br)c1O	active: 56.2 µM	
COc1cc2c(cc1OC)C(C)N(C(=O)c1cc3n(n1)C(C(F)(F)F)CC(c1ccco1)N3)CC2 (stereo unspecified)	inconclusive: 79.4 µM [inhibitor, single point]	
O=C(CSc1ccc(-c2ccco2)nn1)NC1CCCCC1		inconclusive: -42.4% [inhibitor]
CC(=O)Nc1ccc(Nc2c([N+](=O)[O-])c(=O)n(-c3ccccc3)c3ccccc23)cc1		inactive: -22.7%
COc1ccccc1N1C(=O)S/C(=C\c2ccc(C)s2)C1=O	inconclusive: 8.91 µM [inhibitor, partial curve]	
CCC(CC)C1C(C#N)=C(N)SC(N)=C1C#N	inconclusive: 89.1 µM [inhibitor, single point]	
Cc1ccc(S(=O)(=O)N(C)CC(=O)OCC(=O)NC(=O)Nc2ccc3c(c2)OCCO3)cc1	inconclusive: 31.6 µM [inhibitor, single point]	
COc1ccccc1/C=C/C=N/NC(=O)c1cc(-c2ccco2)[nH]n1	inconclusive: 44.7 µM [inhibitor, partial curve]	
CC(=O)NC1=NN(C(C)=O)C2(S1)C(=O)N(C(C)=O)c1ccc(C)cc12 (stereo unspecified)	inconclusive: 20 µM [inhibitor, partial curve]	
COc1cc2c3c(c1)c(N=NC(N)=S)c(O)n3C(C)(C)C=C2C		inactive: -21%
CCOC(=O)c1c(C)[nH]c(C)c1C(=O)COC(=O)c1cc(OC)cc(OC)c1	inconclusive: 50.1 µM [inhibitor, partial curve]	
Cc1ccc(-c2noc(CNC(=O)c3ccoc3C)n2)cc1	inconclusive: 35.5 µM [inhibitor, single point]	
Cc1ccc(OCCCCn2ccnc2)c(Cl)c1	inconclusive: 89.1 µM [inhibitor, partial curve, poor fit]	
CSc1ccc(CCNC(=O)CCc2c(C)nc3ncnn3c2C)cc1		inactive: -7.41%
Cc1nnc(SCc2cc(=O)[nH]c(Nc3nc(C)c4cc(C)c(C)cc4n3)n2)s1	inconclusive: 50.1 µM [inhibitor, partial curve]	
COc1ccc(-c2sc(Nc3ccc(F)c(F)c3F)nc2CCC(=O)NN)cc1	active: 56.2 µM	
NC(=S)Nc1cccc2cc3ccccc3cc12	inconclusive: 63.1 µM [inhibitor, partial curve, poor fit]	
Cc1nnnn1/C(=C\c1ccccc1)C(=O)OCC(=O)Nc1cccc(S(=O)(=O)N(C)C)c1		inactive: -23.4%
CCN1CCN(c2ccc(S(=O)(=O)N3CCCCC3)cc2NC(=O)c2ccc([N+](=O)[O-])s2)CC1	inconclusive: 56.2 µM [inhibitor, partial curve]	
